{"source": "the supplement of paper PMC8728848", "binders": {"B1": {"name": "SP16665A-bot-344-23-344 (Bacteroides ovatus) (protein)", "chain": "SDNEFPDFDYQTVYFANQYGLRTIELGESEFVDNTLDNQHKMVIKAAWGGGYTNRNNVVINFKVDESLCDNLYFKDTDQPLVPMPASYYTLASDRIAIPKGQIMAGVEVQLTDDFFADEKSISENYVIPLLMTNVQGADSILQGKPVVENPVLTNAGDWSILPQNFVLYAVKYVNPWHGEYLRRGIDHATVAGTSKDIIRHEQFVENDEVVNISTKSMKDNLLTLKTKDESGKDISYTVRLSFAEDGSCTVHSGSQNVVVSGSGKFVSKGEKNSLGGKDRNAIYLDYTVNLTDNNIQLATKDTLVLRTRNVYGGKSLEVVRK"}}, "assay_in_all_cases": "glycan array binding signal (z-score within array); higher = stronger binding", "details_in_all_cases": "glycan notation: IUPAC condensed, linker removed", "key": {"[1]": {"target": "Fuc(a1-2)Gal6S(b1-3)GlcNAc6S", "procedure,_shortened": "(§1)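 Glycan array data came from 3228 arrays in the Consortium for Functional Glycomics database, and only arrays with an available protein sequence were kept. Glycan names were put into IUPAC-condensed notation, and columns mapping to the same glycan were averaged. The binding signal is a within-array Z-score, averaged across arrays of one protein sequence run at different concentrations or buffers and across linkers. A negative Z-score can be read as non-binding.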"}, "[2]": {"target": "Fuc(a1-2)Gal6S(b1-4)Glc", "procedure,_shortened": "as §1"}, "[3]": {"target": "Fuc(a1-2)Gal6S(b1-4)Glc6S", "procedure,_shortened": "as §1"}, "[4]": {"target": "Fuc(a1-2)[Gal(a1-3)]Gal", "procedure,_shortened": "as §1"}, "[5]": {"target": "Fuc(a1-2)[Gal(a1-3)]Gal(b1-3)GalNAc", "procedure,_shortened": "as §1"}, "[6]": {"target": "Fuc(a1-2)[Gal(a1-3)]Gal(b1-3)GalNAc(b1-3)Gal(a1-4)Gal(b1-4)Glc", "procedure,_shortened": "as §1"}, "[7]": {"target": "Fuc(a1-2)[Gal(a1-3)]Gal(b1-3)GlcNAc", "procedure,_shortened": "as §1"}, "[8]": {"target": "Fuc(a1-2)[Gal(a1-3)]Gal(b1-3)GlcNAc(b1-2)Man(a1-3)[Fuc(a1-2)[Gal(a1-3)]Gal(b1-3)GlcNAc(b1-2)Man(a1-6)]Man(b1-4)GlcNAc(b1-4)GlcNAc", "procedure,_shortened": "as §1"}, "[9]": {"target": "Fuc(a1-2)[Gal(a1-3)]Gal(b1-3)GlcNAc(b1-2)Man(a1-3)[Fuc(a1-2)[Gal(a1-3)]Gal(b1-3)GlcNAc(b1-2)Man(a1-6)]Man(b1-4)GlcNAc(b1-4)[Fuc(a1-6)]GlcNAc", "procedure,_shortened": "as §1"}, "[10]": {"target": "Fuc(a1-2)[Gal(a1-3)]Gal(b1-3)GlcNAc(b1-3)GalNAc", "procedure,_shortened": "as §1"}, "[11]": {"target": "Fuc(a1-2)[Gal(a1-3)]Gal(b1-3)GlcNAc(b1-6)GalNAc", "procedure,_shortened": "as §1"}, "[12]": {"target": "Fuc(a1-2)[Gal(a1-3)]Gal(b1-4)Glc", "procedure,_shortened": "as §1"}, "[13]": {"target": "Fuc(a1-2)[Gal(a1-3)]Gal(b1-4)GlcNAc", "procedure,_shortened": "as §1"}, "[14]": {"target": "Fuc(a1-2)[Gal(a1-3)]Gal(b1-4)GlcNAc(b1-2)Man", "procedure,_shortened": "as §1"}, "[15]": {"target": "Fuc(a1-2)[Gal(a1-3)]Gal(b1-4)GlcNAc(b1-2)Man(a1-3)[Fuc(a1-2)[Gal(a1-3)]Gal(b1-4)GlcNAc(b1-2)Man(a1-6)]Man(b1-4)GlcNAc(b1-4)GlcNAc", "procedure,_shortened": "as §1"}, "[16]": {"target": "Fuc(a1-2)[Gal(a1-3)]Gal(b1-4)GlcNAc(b1-2)Man(a1-3)[Fuc(a1-2)[Gal(a1-3)]Gal(b1-4)GlcNAc(b1-2)Man(a1-6)]Man(b1-4)GlcNAc(b1-4)[Fuc(a1-6)]GlcNAc", "procedure,_shortened": "as §1"}, "[17]": {"target": "Fuc(a1-2)[Gal(a1-3)]Gal(b1-4)GlcNAc(b1-3)GalNAc", "procedure,_shortened": "as §1"}, "[18]": {"target": "Fuc(a1-2)[Gal(a1-3)]Gal(b1-4)GlcNAc(b1-3)[Fuc(a1-2)[Gal(a1-3)]Gal(b1-4)GlcNAc(b1-6)]GalNAc", "procedure,_shortened": "as §1"}, "[19]": {"target": "Fuc(a1-2)[Gal(a1-3)]Gal(b1-4)GlcNAc(b1-6)GalNAc", "procedure,_shortened": "as §1"}, "[20]": {"target": "Fuc(a1-2)[Gal(a1-3)]Gal(b1-4)[Fuc(a1-3)]Glc", "procedure,_shortened": "as §1"}, "[21]": {"target": "Fuc(a1-2)[Gal(a1-3)]Gal(b1-4)[Fuc(a1-3)]GlcNAc", "procedure,_shortened": "as §1"}, "[22]": {"target": "Fuc(a1-2)[Gal(a1-3)]Gal(b1-4)[Fuc(a1-3)]GlcNAc(b1-3)GalNAc", "procedure,_shortened": "as §1"}, "[23]": {"target": "Fuc(a1-2)[Gal(a1-4)]Gal(b1-4)GlcNAc", "procedure,_shortened": "as §1"}, "[24]": {"target": "Fuc(a1-2)[GalNAc(a1-3)]Gal", "procedure,_shortened": "as §1"}, "[25]": {"target": "Fuc(a1-2)[GalNAc(a1-3)]Gal(b1-3)GalNAc(a1-3)[Fuc(a1-2)]Gal(b1-4)GlcNAc", "procedure,_shortened": "as §1"}, "[26]": {"target": "Fuc(a1-2)[GalNAc(a1-3)]Gal(b1-3)GalNAc(b1-3)Gal(a1-4)Gal(b1-4)Glc", "procedure,_shortened": "as §1"}, "[27]": {"target": "Fuc(a1-2)[GalNAc(a1-3)]Gal(b1-3)GlcNAc", "procedure,_shortened": "as §1"}, "[28]": {"target": "Fuc(a1-2)[GalNAc(a1-3)]Gal(b1-3)GlcNAc(b1-2)Man(a1-3)[Fuc(a1-2)[GalNAc(a1-3)]Gal(b1-3)GlcNAc(b1-2)Man(a1-6)]Man(b1-4)GlcNAc(b1-4)GlcNAc", "procedure,_shortened": "as §1"}, "[29]": {"target": "Fuc(a1-2)[GalNAc(a1-3)]Gal(b1-3)GlcNAc(b1-2)Man(a1-3)[Fuc(a1-2)[GalNAc(a1-3)]Gal(b1-3)GlcNAc(b1-2)Man(a1-6)]Man(b1-4)GlcNAc(b1-4)[Fuc(a1-6)]GlcNAc", "procedure,_shortened": "as §1"}, "[30]": {"target": "Fuc(a1-2)[GalNAc(a1-3)]Gal(b1-3)GlcNAc(b1-3)GalNAc", "procedure,_shortened": "as §1"}, "[31]": {"target": "Fuc(a1-2)[GalNAc(a1-3)]Gal(b1-3)GlcNAc(b1-6)GalNAc", "procedure,_shortened": "as §1"}, "[32]": {"target": "Fuc(a1-2)[GalNAc(a1-3)]Gal(b1-4)Glc", "procedure,_shortened": "as §1"}, "[33]": {"target": "Fuc(a1-2)[GalNAc(a1-3)]Gal(b1-4)GlcNAc", "procedure,_shortened": "as §1"}, "[34]": {"target": "Fuc(a1-2)[GalNAc(a1-3)]Gal(b1-4)GlcNAc(b1-2)Man", "procedure,_shortened": "as §1"}, "[35]": {"target": "Fuc(a1-2)[GalNAc(a1-3)]Gal(b1-4)GlcNAc(b1-2)Man(a1-3)[Fuc(a1-2)[GalNAc(a1-3)]Gal(b1-4)GlcNAc(b1-2)Man(a1-6)]Man(b1-4)GlcNAc(b1-4)GlcNAc", "procedure,_shortened": "as §1"}, "[36]": {"target": "Fuc(a1-2)[GalNAc(a1-3)]Gal(b1-4)GlcNAc(b1-2)Man(a1-3)[Fuc(a1-2)[GalNAc(a1-3)]Gal(b1-4)GlcNAc(b1-2)Man(a1-6)]Man(b1-4)GlcNAc(b1-4)[Fuc(a1-6)]GlcNAc", "procedure,_shortened": "as §1"}, "[37]": {"target": "Fuc(a1-2)[GalNAc(a1-3)]Gal(b1-4)GlcNAc(b1-3)Gal(b1-4)GlcNAc", "procedure,_shortened": "as §1"}, "[38]": {"target": "Fuc(a1-2)[GalNAc(a1-3)]Gal(b1-4)GlcNAc(b1-3)Gal(b1-4)GlcNAc(b1-3)Gal(b1-4)GlcNAc", "procedure,_shortened": "as §1"}, "[39]": {"target": "Fuc(a1-2)[GalNAc(a1-3)]Gal(b1-4)GlcNAc(b1-3)GalNAc", "procedure,_shortened": "as §1"}, "[40]": {"target": "Fuc(a1-2)[GalNAc(a1-3)]Gal(b1-4)GlcNAc(b1-3)[Fuc(a1-2)[GalNAc(a1-3)]Gal(b1-4)GlcNAc(b1-6)]GalNAc", "procedure,_shortened": "as §1"}, "[41]": {"target": "Fuc(a1-2)[GalNAc(a1-3)]Gal(b1-4)GlcNAc(b1-6)GalNAc", "procedure,_shortened": "as §1"}, "[42]": {"target": "Fuc(a1-2)[GalNAc(a1-3)]Gal(b1-4)[Fuc(a1-3)]GlcNAc", "procedure,_shortened": "as §1"}, "[43]": {"target": "Fuc(a1-2)[GalNAc(a1-3)]Gal(b1-4)[Fuc(a1-3)]GlcNAc(b1-3)GalNAc", "procedure,_shortened": "as §1"}, "[44]": {"target": "Fuc(a1-2)[GalNAc(a1-4)]Gal(b1-4)GlcNAc", "procedure,_shortened": "as §1"}, "[45]": {"target": "Fuc(a1-2)[GalNAc(b1-3)]Gal", "procedure,_shortened": "as §1"}}, "note": "The list shows a part of the results."}
{"binder": "B1", "values": [{"measurement": "glycan array binding signal (z-score)", "setting": "[1]", "value": 0.553}, {"measurement": "glycan array binding signal (z-score)", "setting": "[2]", "value": 0.254}, {"measurement": "glycan array binding signal (z-score)", "setting": "[3]", "value": 0.025}, {"measurement": "glycan array binding signal (z-score)", "setting": "[4]", "value": -0.093}, {"measurement": "glycan array binding signal (z-score)", "setting": "[5]", "value": -0.051}, {"measurement": "glycan array binding signal (z-score)", "setting": "[6]", "value": -0.254}, {"measurement": "glycan array binding signal (z-score)", "setting": "[7]", "value": -0.034}, {"measurement": "glycan array binding signal (z-score)", "setting": "[8]", "value": -0.641}, {"measurement": "glycan array binding signal (z-score)", "setting": "[9]", "value": -0.333}, {"measurement": "glycan array binding signal (z-score)", "setting": "[10]", "value": -0.457}, {"measurement": "glycan array binding signal (z-score)", "setting": "[11]", "value": 0.014}, {"measurement": "glycan array binding signal (z-score)", "setting": "[12]", "value": -0.257}, {"measurement": "glycan array binding signal (z-score)", "setting": "[13]", "value": -0.423}, {"measurement": "glycan array binding signal (z-score)", "setting": "[14]", "value": 0.239}, {"measurement": "glycan array binding signal (z-score)", "setting": "[15]", "value": 1.04}, {"measurement": "glycan array binding signal (z-score)", "setting": "[16]", "value": -0.253}, {"measurement": "glycan array binding signal (z-score)", "setting": "[17]", "value": -0.46}, {"measurement": "glycan array binding signal (z-score)", "setting": "[18]", "value": 8.34}, {"measurement": "glycan array binding signal (z-score)", "setting": "[19]", "value": -0.001}, {"measurement": "glycan array binding signal (z-score)", "setting": "[20]", "value": 0.304}, {"measurement": "glycan array binding signal (z-score)", "setting": "[21]", "value": -0.083}, {"measurement": "glycan array binding signal (z-score)", "setting": "[22]", "value": -0.571}, {"measurement": "glycan array binding signal (z-score)", "setting": "[23]", "value": 0.359}, {"measurement": "glycan array binding signal (z-score)", "setting": "[24]", "value": -0.372}, {"measurement": "glycan array binding signal (z-score)", "setting": "[25]", "value": -0.115}, {"measurement": "glycan array binding signal (z-score)", "setting": "[26]", "value": -0.468}, {"measurement": "glycan array binding signal (z-score)", "setting": "[27]", "value": -0.496}, {"measurement": "glycan array binding signal (z-score)", "setting": "[28]", "value": -0.285}, {"measurement": "glycan array binding signal (z-score)", "setting": "[29]", "value": -0.136}, {"measurement": "glycan array binding signal (z-score)", "setting": "[30]", "value": 0.521}, {"measurement": "glycan array binding signal (z-score)", "setting": "[31]", "value": -0.18}, {"measurement": "glycan array binding signal (z-score)", "setting": "[32]", "value": -0.312}, {"measurement": "glycan array binding signal (z-score)", "setting": "[33]", "value": -0.438}, {"measurement": "glycan array binding signal (z-score)", "setting": "[34]", "value": -0.499}, {"measurement": "glycan array binding signal (z-score)", "setting": "[35]", "value": -0.581}, {"measurement": "glycan array binding signal (z-score)", "setting": "[36]", "value": -0.434}, {"measurement": "glycan array binding signal (z-score)", "setting": "[37]", "value": -0.622}, {"measurement": "glycan array binding signal (z-score)", "setting": "[38]", "value": 0.178}, {"measurement": "glycan array binding signal (z-score)", "setting": "[39]", "value": -0.594}, {"measurement": "glycan array binding signal (z-score)", "setting": "[40]", "value": -0.48}, {"measurement": "glycan array binding signal (z-score)", "setting": "[41]", "value": -0.404}, {"measurement": "glycan array binding signal (z-score)", "setting": "[42]", "value": 0.426}, {"measurement": "glycan array binding signal (z-score)", "setting": "[43]", "value": 0.187}, {"measurement": "glycan array binding signal (z-score)", "setting": "[44]", "value": -0.17}, {"measurement": "glycan array binding signal (z-score)", "setting": "[45]", "value": -0.266}]}
